These results are taken from patent US20260116960A1 (SHANGHAI HONGCHENG BIOPHARMACEUTICAL, published 2026).

Assay [1] addresses T1, human VEGF165-his protein (Acro, Catalog No. VE5-H5248) (human, UniProt P15692-4 27-191).
T1 construct: Bought protein; also called hVEGF165-His; VEGFA; not shown: his tag
T1 sequence (looked up): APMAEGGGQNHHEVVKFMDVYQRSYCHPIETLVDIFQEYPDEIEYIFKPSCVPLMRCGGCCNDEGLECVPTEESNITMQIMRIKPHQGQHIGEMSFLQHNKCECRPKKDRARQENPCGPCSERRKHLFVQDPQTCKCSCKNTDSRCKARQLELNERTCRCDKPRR
Briefly: ELISA, plate coated with human VEGF165-his. As for the experimental part: ELISA was used to determine the activity of the trispecific antibodies binding to the PD-1 protein: 1 μg/mL human PD-1 protein (Acro, Catalog No.: PD1-H5221) was used to coat a high-adsorption 96-well ELISA plate and incubated at 4° C. overnight. On the next day, the plate was washed three times with PBST solution and blocked with 1% BSA-PBS solution at 37° C. for 1 hour. At the same time, 3-fold gradient dilutions of the antibody were prepared with 1% BSA-PBS solution, with a starting concentration of 10 nM. The antibodies of each gradient concentration were added to the blocked 96-well ELISA plate at 100 µL/well in triplicate and incubated at 37° C. for 1 hour. The plate was then washed three times with 0.05% PBST solution, and 100 μL/well of HRP-labeled secondary antibody (Sigma, Catalog No.: A0170) diluted at 1:5000 was added to the ELISA plate and incubated at 37° C. for 1 hour. The plate was washed three times with 0.05% PBST solution and developed with TMB. The absorbance of the 96-well ELISA plate at 450 nm was detected by an ELISA reader. The OD₄₅₀ value was fitted using a four-parameter model to calculate the EC₅₀ value of each antibody binding to PD-1.
The binding activity of the trispecific antibodies to VEGFA protein was detected by ELISA method as described in Section 2.1. The used human VEGF165-his protein was purchased from Acro, Catalog No.: VE5-H5248.

For assay [2], the target named is T2, human PD-1 on the cell surface (human, UniProt Q15116 25-288).
T2 construct: whole, on cells; also called cell surface PD-1
Kind of assay: flow cytometry, 293T-hPD-1 cells, batch FACS#1. Here is the method:
After centrifugation at 300 g for 5 minutes, the supernatant was discarded. The antibodies were serially diluted 3-fold with FACS buffer to obtain two gradient series solution FACS #1 and FACS #2, with the starting concentration of 200 nM (Table 5, FACS #1) or 100 nM (Table 5, FACS #2, FIG. 2), respectively. Then 100 μL/well was added to a 96-well plate in triplicate, mixed, and incubated at 4° C. for 60 min. The plate was centrifuged and washed three times with FACS buffer. 100 μL/well of 1:800 diluted AF647-anti-hIgG(H+L) (Jackson, Catalog No.: 109-605-003) was added and incubated at 4° C. for 50 minutes. After washing the plate three times with FACS buffer, 100 μL/well of FACS buffer was added to resuspend the cells, and the fluorescence signal was detected on a flow cytometer (BECKMAN COULTER cytoFLEX). The binding activity was fitted using a four-parameter model to calculate the EC₅₀ value of each antibody binding to PD-1.

Assay [3] deals with T3, hPD1-mFc (Acro, Catalog No. PD1-H5255) (human, UniProt Q15116 in part).
T3 construct: Bought protein; also called human PD-1 mouse Fc fusion; not shown: mouse Fc (mFc)
Kind of assay: flow cytometry: antibody titrated on CHOK1-hCTLA4 cells, then mixture of hPD1-mFc and biotin-hVEGF165; AF647 anti-mIgG signal. As for the experimental part:
CHOK1-hCTLA4 cells were obtained by trypsin digestion, washed twice with PBS containing 2% FBS (FACS buffer), and the cell density was adjusted to about 8×10⁵ cells/ml. 200 μL/well of the cells were added to a 96-well U-bottom plate. After centrifugation at 300 g for 5 minutes, the supernatant was discarded and 100 μL of antibody solution serially diluted with FACS buffer was added in triplicate (with starting concentration of 200 nM, 3-fold serial dilution, and the same volume of FACS buffer was used as a negative control). Mixed well and incubated at 4° C. for 60 min. After washing the plate three times with FACS buffer, a mixture consisting of 1 μg/mL hPD1-mFc (Acro, Catalog No.: PD1-H5255) and 1 μg/mL Biotin-hVEGF165 in a 1:1 volume ratio was added to each well at 100 μL/well to detect the simultaneously binding activity of the trispecific antibodies to VEGF and PD-1 after binding to cell surface CTLA-4. […] After washing the plate three times with FACS buffer, 100 μL/well of PBS solution was added to resuspend the cells, and the fluorescence signal was detected on a flow cytometer. The binding activity was fitted using a four-parameter model, and the EC₅₀ value of each antibody was calculated.

The target of assay [4] is T4, human CTLA-4 on the cell surface (human, UniProt P16410 36-223).
T4 construct: whole, on cells; also called CHO-hCTLA-4 cells; CHOK1-hCTLA4 cells
T4 sequence (P16410 36-223): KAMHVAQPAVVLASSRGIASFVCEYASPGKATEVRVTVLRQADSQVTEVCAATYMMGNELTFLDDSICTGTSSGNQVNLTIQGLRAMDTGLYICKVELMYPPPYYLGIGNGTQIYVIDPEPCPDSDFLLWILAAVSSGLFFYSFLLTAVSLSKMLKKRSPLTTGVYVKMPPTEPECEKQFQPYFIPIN
Briefly: flow cytometry, CHO-hCTLA-4 cells, batch FACS#3.

The target of assay [5] is T5, Biotinylated Human VEGF165 (Acro, Catalog No. VE5-H82Q0) (human, UniProt P15692-4 27-191, biotinylated (site not stated)).
T5 construct: Bought protein; also called Biotinylated-hVEGF165; Biotin-hVEGF165
T5 sequence (looked up): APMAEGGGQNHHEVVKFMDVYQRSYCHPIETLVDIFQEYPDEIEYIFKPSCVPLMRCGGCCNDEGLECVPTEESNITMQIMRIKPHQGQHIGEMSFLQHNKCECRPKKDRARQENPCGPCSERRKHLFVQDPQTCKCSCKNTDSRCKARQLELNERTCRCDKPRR
Kind of assay: sandwich ELISA: antibody titrated on coated human PD1-his, detected with biotinylated hVEGF165 and streptavidin-HRP.

B1: HC010-F8 (trispecific antibody, human IgG4 S228P, kappa)
heavy: EVQLVESGGGLVQPGGSLRLSCAASGFTFSSYGMSWVRQAPGKCLEWVSTISGGGRDTYYPDSVKGRFTISRDNSKNTLYLQMNSLRAEDTAVYYCARQNGITWFADWGQGTLVTVSSGGGGSGGGGSGGGGSGGGGSDIQMTQSPSSLSASVGDRVTITCRASESVDNYGISFMNWYQQKPGKAPKLLIYAASNQGSGVPSRFSGSGSGTDFTLTISSLQPEDFATYYCQQSKEVPWTFGCGTKVEIKGGGGSGGGGSGGGGSGGGGSEVQLVESGGGLVQPGGSLRLSCAASGYTFTNYGMNWVRQAPGKGLEWVGWINTYTGEPTYAADFKRRFTFSLDTSKSTAYLQMNSLRAEDTAVYYCAKYPHYYGSSHWYFDVWGQGTLVTVSSASTKGPSVFPLAPCSRSTSESTAALGCLVKDYFPEPVTVSWNSGALTSGVHTFPAVLQSSGLYSLSSVVTVPSSSLGTKTYTCNVDHKPSNTKVDKRV[human IgG4 Fc with S228P (EU numbers) not spelt out]AGGGGSGGGGSGGGGSGGGGSEVQLLESGGGLVQPGGSLRLSCAASGSIFSINHMAWYRQAPGKQRELVAGVNSRGTTNYVDSVKGRFTISRDNSKNTLYLQMNSLRAEDTAVYYCRALGGAVAAWGQGTLVTVSS
light: DIQMTQSPSSLSASVGDRVTITCSASQDISNYLNWYQQKPGKAPKVLIYFTSSLHSGVPSRFSGSGSGTDFTLTISSLQPEDFATYYCQQYSTVPWTFGQGTKVEIKRTVAAPSVFIFPPSDEQLKSGTASVVCLLNNFYPREAKVQWKVDNALQSGNSQESVTEQDSKDSTYSLSSTLTLSKADYEKHKVYACEVTHQGLSSPVTKSFNRGEC
notes: light: bevacizumab VL-kappa; also called H010-F8
For the molecule B1, the concentration for a half-maximal effect (EC50) in assay [1] is 0.072 nM; in assay [2] it was 2.39 nM; in assay [3] it was 1.92 nM; in assay [4], 4.92 nM; in assay [5], 0.049 nM.
